Results: article PMC4336329 (PLoS ONE, 2015)
Hit rate of the full screen: of about 310,000 compounds, about 14,000 (4.5%) showed an effect of 50% or more. The effect is printed as a negative number. Some of the results follow.

Each compound was assayed against human ether-à-go-go-related gene (hERG) potassium channel (human, UniProt Q12809) (assay: primary screen, population patch clamp on CHO cells stably expressing hERG).
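Note: peak tail current of the secondary pulse compared with the same well before compound.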

Sequence of human ether-à-go-go-related gene (hERG) potassium channel (Q12809 whole entry, looked up): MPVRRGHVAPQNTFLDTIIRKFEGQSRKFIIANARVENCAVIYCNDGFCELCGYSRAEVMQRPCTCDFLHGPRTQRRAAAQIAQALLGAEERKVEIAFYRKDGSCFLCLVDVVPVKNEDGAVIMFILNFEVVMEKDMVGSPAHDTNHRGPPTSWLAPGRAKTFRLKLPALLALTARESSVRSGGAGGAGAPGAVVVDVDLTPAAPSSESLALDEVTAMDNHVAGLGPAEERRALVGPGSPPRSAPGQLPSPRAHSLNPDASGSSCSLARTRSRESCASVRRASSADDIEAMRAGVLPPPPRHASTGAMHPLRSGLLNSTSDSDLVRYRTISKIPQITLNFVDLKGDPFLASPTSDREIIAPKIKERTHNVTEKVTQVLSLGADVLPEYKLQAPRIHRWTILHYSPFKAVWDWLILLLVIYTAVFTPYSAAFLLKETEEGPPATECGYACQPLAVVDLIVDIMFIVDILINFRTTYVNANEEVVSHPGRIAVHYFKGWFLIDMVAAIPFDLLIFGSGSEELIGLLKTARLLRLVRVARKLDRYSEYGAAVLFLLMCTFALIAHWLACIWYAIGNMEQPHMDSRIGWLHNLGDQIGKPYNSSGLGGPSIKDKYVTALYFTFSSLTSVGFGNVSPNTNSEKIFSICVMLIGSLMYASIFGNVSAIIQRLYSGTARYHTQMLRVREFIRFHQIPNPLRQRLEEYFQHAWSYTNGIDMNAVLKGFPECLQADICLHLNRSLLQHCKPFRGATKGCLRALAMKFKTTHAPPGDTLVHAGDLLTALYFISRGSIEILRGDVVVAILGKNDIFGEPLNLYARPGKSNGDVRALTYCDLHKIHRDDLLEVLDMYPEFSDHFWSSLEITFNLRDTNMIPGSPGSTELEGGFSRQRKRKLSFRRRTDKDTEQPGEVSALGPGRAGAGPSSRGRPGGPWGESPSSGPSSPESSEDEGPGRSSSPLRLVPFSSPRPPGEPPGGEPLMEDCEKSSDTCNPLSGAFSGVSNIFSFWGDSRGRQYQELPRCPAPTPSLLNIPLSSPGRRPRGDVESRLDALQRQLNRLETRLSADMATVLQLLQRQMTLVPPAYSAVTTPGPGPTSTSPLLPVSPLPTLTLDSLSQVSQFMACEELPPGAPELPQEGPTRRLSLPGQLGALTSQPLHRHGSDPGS

Row | Compound | hERG current change (%, negative = inhibition) at 10uM [%]
1 | C=CCOc1ccc(/C=N/n2cncn2)cc1OC | 3.13
2 | CCOc1ccccc1OCC(=O)Nc1ccc(Cl)cc1C(=O)c1ccccc1 | 16.8
3 | O=C(O)c1nccnc1C(=O)Nc1ccc(Cl)cc1Cl | 27.5
4 | N#Cc1c(Cn2cncn2)nc(=O)n(-c2ccc(Cl)cc2)c1N | 27.6
5 | CC12CN3CC(C)(CN(C1)C3c1ccncc1)C2=O (stereo not drawn) | 13
6 | CCN1CCCC1CNS(=O)(=O)c1ccc(F)c(Cl)c1 (stereo not drawn) | 9.12
7 | O=C(c1ccco1)N1N=C(c2ccco2)CC1c1ccc(Cl)cc1Cl (stereo not drawn) | 11.9
8 | O=C(Cn1c(-c2ccc(Cl)cc2)noc1=O)N1CCN(c2ccccc2F)CC1 | -34.4
9 | Cc1ccc(S(=O)(=O)N(C)CC(=O)NC2CC(C)(C)NC(C)(C)C2)cc1 | 5.34
10 | O=C(O)c1cc(-c2ccc(Cl)c(Cl)c2)n(-c2ccccc2)n1 | 12.6
11 | Cc1ccc(NC(=O)CCS(=O)(=O)c2ccc(Br)cc2)nc1 | 25.9
12 | CCn1c(SCC(=O)Nc2ccc(N3CCOCC3)cc2)nnc1C1CC1 | 7.69
13 | Cc1csc(=O)n1CC(=O)Nc1nc2ccccc2s1 | -4.99
14 | CC(Oc1ccc(Br)cc1)C(=O)N1CCc2ccccc21 (stereo not drawn) | 9.22
15 | CC(O)CNCCOc1ccccc1-c1ccccc1.O=C(O)C(=O)O (stereo not drawn) | 6.01
16 | O=C(O)CNC(=O)/C=C/c1c(Cl)cccc1Cl | -7.7
17 | COC(=O)C(N)Cc1ccc(OC)c([N+](=O)[O-])c1.Cl (stereo not drawn) | 3.86
18 | Cc1ccc(NC(=O)COC(=O)COc2cccc3c2OC(C)(C)C3)cc1S(=O)(=O)N1CCOCC1 | 4.41
19 | COc1ccc(C(=O)O/N=C(\N)c2ccccn2)c(OC)c1 | 9.32

Row | Compound | hERG current change (%, negative = inhibition) at 10uM [%]
20 | O=C(c1ccc2c(c1)N(Cc1ccccc1)C(=O)c1ccccc1S2)N1CCCC1 | -19.8
21 | O=C(NC1CCCCC1)N1CCC(c2nc3ccccc3[nH]2)CC1 | -10.7
22 | CCOC(=O)N1CCN(C(=O)CCn2c(=S)[nH]c3cc(OCC)c(OCC)cc3c2=O)CC1 | -7.21
23 | Cc1cc(NS(=O)(=O)c2ccccc2)cc(Cl)c1O | 3.18
24 | COCCN(Cc1ccco1)C(=O)C1CCCN(c2ncnc3c2nc2n3CCCCC2)C1 (stereo not drawn) | -14.3
25 | COc1ccccc1-c1nc(-c2ccc(C(=O)O)cc2)no1 | 14.5
26 | CCOc1ccc(Oc2ccc(-c3nnc(-c4ccccc4)o3)cc2[N+](=O)[O-])cc1 | 8.53
27 | CNC(=O)CC12CC3CC(CC(C3)C1)C2 | 2.22
28 | O=C(CCNC(=O)c1ccc(Cl)cc1)Nc1ccccc1Cl | 0.957
29 | Cc1cc(C)c(OCCN(C)Cc2ccccc2)c(Br)c1 | 11.6
30 | Cc1c(Br)c([N+](=O)[O-])nn1CC(=O)Nc1c(C)n(C)n(-c2ccccc2)c1=O | 13.3
31 | CCOc1cc(C(c2c(C)[nH][nH]c2=O)c2c(C)[nH][nH]c2=O)ccc1OC(=O)c1cccc([N+](=O)[O-])c1 | -4.87
32 | Cc1ccccc1-n1nc2c(c1NC(=O)c1ccc(S(=O)(=O)N(C)C)cc1)CSC2 | 12.9
33 | Cc1ccc(S(=O)(=O)N2CCN(C(=S)NCCc3ccccc3)CC2)cc1 | 7.16
34 | O=C1CCCS(=O)(=O)c2ccccc21 | 23.8
35 | Cc1ccc(OCC(=O)N2CCN(C(=O)c3cccnc3)CC2)cc1 | -4.29
36 | COc1ccc(C(=O)N/C(=C\c2ccc3c(c2)OCO3)C(=O)Nc2cccc(C(=O)O)c2)cc1 | 30.2
37 | O=C(Nc1nccs1)c1cc(Cl)ccc1[N+](=O)[O-] | -9.55
38 | COc1ccc(N=C2NC(=O)C(CC(=O)NCCc3ccc(OC)c(OC)c3)S2)cc1 (stereo not drawn) | -1.99

Row | Compound | hERG current change (%, negative = inhibition) at 10uM [%]
39 | COc1ccc(-n2c(-c3ccco3)nc3ccccc3c2=O)cc1 | 1.5
40 | O=C(C1CCN(c2ncnc3c2sc2cccc(F)c23)CC1)N1CCOCC1 | -27.8
41 | O=C(COC(=O)C1CC1)NC(=O)c1ccccc1 | -10.4
42 | CCOC(=O)c1cc(C(=O)OCC)c(=O)[nH]c1N1CCCC1 | 4.19
43 | CC(C)n1c(Nc2ccccc2)nc2ccccc21 | -1.84
44 | CC1=CC(C)(C)N(C(=O)c2ccccc2)c2ccccc21 | -8.02
45 | Oc1ccc(/C=N/Nc2ccnc3cc(Cl)ccc23)c(O)c1O | 14.2
46 | O=C(Nc1ccccc1Oc1ccccc1)c1ccccc1F | -4.12
47 | Cc1ccc2nc(NC(=O)C3CC(=O)N(Cc4ccco4)C3)sc2c1 (stereo not drawn) | 16.1
48 | COc1cc2c(cc1NC(=O)CSc1nnnn1-c1ccccc1)oc1ccccc12 | 3.22
49 | O=C(N/N=C/c1cccc(O)c1)c1cc(-c2ccccc2)nc2ccccc12 | 11
50 | COc1ccc(OC)c(S(=O)(=O)N2CCC(c3nc4ccccc4[nH]3)CC2)c1 | -55.7
51 | Cc1ccc(NC(=O)C(C)OC(=O)/C=C/c2ccccc2)cc1 (stereo not drawn) | 23
52 | COc1ccc(N2CCN(C(=O)CN(Cc3ccccc3)S(C)(=O)=O)CC2)cc1 | -17.4
53 | O=C(O)CCC(=O)Nc1nc2ccc([N+](=O)[O-])cc2s1 | 12
54 | O=C(NNC(=O)c1ccncc1)c1ccncc1 | 21.9
55 | COc1ccc(NC(=O)NCCN2CCc3ccccc3C2)cc1 | -34.6
56 | Cn1c(=O)oc2cc(S(=O)(=O)NC(Cc3ccccc3)C(=O)N3CCCCC3)ccc21 (stereo not drawn) | 16.8
57 | CCCCOCC(O)CN1CCN(C(C)=O)CC1.O=C(O)C(=O)O (stereo not drawn) | -2.05
